In PubChem BioAssay AID1963576 (National Center for Advancing Translational Sciences (NCATS), 2024):
Among all 46,000 compounds or so, about 60 (0.1%) were called active. About 3% were inconclusive and are not listed. The call rests on the fitted dose curve; in most records, active means well fitted inhibition curve with a large enough effect; inconclusive means small, poorly fitted or top-dose-only effect; inactive means no such curve, though single readings can be large or run the other way. The list shows a part of the results.

Test: Primary qHTS assay for Inhibitors of ovarian cancer metastasis using an organotypic tumor microenvironment (TME) model. Further: nearly all actives have a fitted effect of over 65% in size.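 On activity change, negative = inhibition: plate controls were DMSO wells for no effect and tomatine positive control wells for full effect.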
Details: SKOV3ip1-GFP adhesion/invasion on 3D omental model, fluorescence; series mostly up to 45.8 µM; activity change, negative = inhibition: at the top concentration
Outline: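 Adhesion/invasion was scored as fixed GFP-labeled SKOV3ip1 cell counts (488/509 nm), normalized to DMSO and tomatine controls. Cancer cells in serum-free medium, with four compound doses (0.36-46 umol/L), sat 2 hr at RT then 16 hr at 37 C on a 48 hr fibroblast/mesothelial/ECM culture.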

Activity change, negative = inhibition, inactive:
COc1ccc(-c2noc(CN(C(C)C)S(=O)(=O)c3ccc(Br)cc3)n2)cc1 4.52%, O=C(Nc1ccccc1)N(Cc1ccc(F)cc1)c1ccccn1 -4.25%, CN(C)c1ccc(CNS(=O)(=O)c2ccc3[nH]c4c(c3c2)CCCCC4)cc1 -5.39%, Cc1nc2ccc(S(=O)(=O)NC(CC(C)C)C(=O)N3CCN(c4ccc(F)cc4)CC3)cc2s1 (configuration not stated) 2.65%, Cc1ccc(CNC(=O)c2c(O)nc3c(C)cccn3c2=O)cc1 -4.36%, CCN(CC)CCCNC(=O)c1ccc2c(c1)NC(=O)C(CS(=O)(=O)Cc1cccc(Br)c1)N2 (configuration not stated) -2.9%, CCOC(=O)c1cccc(NC(=O)CCC(=O)N2CC(C)Oc3ccc(C)cc32)c1 (configuration not stated) 0.812%, CCOC(=O)c1ccc(NC(=O)c2csnn2)cc1 -12.4%, COc1ccc(CCNC(=O)CSc2nnnn2-c2cccc(C(C)=O)c2)cc1OC 2.55%, Cc1ccccc1-c1noc(-c2cccnc2N(C)Cc2ccc(Cl)cc2)n1 -15.8%, NC(=O)NO 6.01%, Clc1ccccc1C(c1ccccc1)(c1ccccc1)n1ccnc1 -12%, CC1CCN(S(=O)(=O)c2ccc3c(c2)N(CC(=O)NC(C)C)C(=O)CO3)CC1 22.2%, Cc1c(C(=O)Nc2ccc(C(C)C)cc2)sc2nc[nH]c(=O)c12 -9.1%, Cc1ccccc1C(=O)N1CCN(CCc2ccccn2)CC1 6.9%, COc1ccc(CNC(=O)c2ccc3c(c2)CCN3S(=O)(=O)c2ccc(C)cc2)cc1 -8.89%, COc1ccc(CNC(=O)CSc2ncc(S(=O)(=O)c3ccc(C)c(Cl)c3)c(=O)[nH]2)cc1 -6.84%, Cc1ccc(NC(=O)C2CCCN2S(=O)(=O)c2cccc3nsnc23)cc1Cl (configuration not stated) 2.66%, Cc1ccc2c(c1)c1c(c(=O)n(-c3ccccc3)c(=O)n1CC(=O)c1ccc(F)cc1)n2C -5.05%

outcome, inactive:
C=Cc1ccc(CN2C(=O)c3ccccc3Sc3ccc(C(=O)OCc4ccco4)cc32)cc1, Cc1cc(O)c(C(c2ccccc2)N2CCN(C)CC2)c(=O)n1Cc1ccco1 (configuration not stated), COc1ccc(Br)cc1CNC(=O)c1nn(-c2ccc(C)cc2)c(=O)c2c1c1ccccc1n2C, Fc1ccc(Cc2cn3cc(-c4ccccc4)nc3s2)cc1, O=C(C1CC1)N1CCN(c2nc3c(Cl)cccc3s2)CC1, COc1cccc(CNC(=O)CSc2ncc(S(=O)(=O)c3ccc(Br)cc3)c(=O)[nH]2)c1, Cc1ccc(-c2nnc(Nc3ccc(Cl)c(Cl)c3)c3ccccc23)cc1S(=O)(=O)NCCO, CC1CCN(S(=O)(=O)c2ccc3c(c2)CCN3C(=O)Nc2ccc(Br)cc2)CC1
